The assay concerns Plasmodium falciparum NF54 stage V gametocytes. As to the kind of experiment: viability index relative to DMSO control (fraction); higher = less gametocyte killing. To be noted: 2.5 µM, library set: Broad Institute DOS, incubation time: 72 h. The essentials: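 Gametocytes (P. falciparum NF54, stage V) were treated with compound at 2.5 µM for 72 hr at 37°C in low oxygen, in serum-free medium at 0.75% gametocytemia and 1.25% hematocrit. Counts of 20–70 µm2 red particles, taken from one field per well after MitoTracker Red CMXRos with saponin, were divided by the plate mean of solvent-only wells. This ratio is the viability index.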

± gives the uncertainty stated by the source. In all, about 9,900 compounds were measured (“viability index relative to DMSO control”: median about 1, lowest 2% from about 0.85 on). Some of the results follow.

Regarding `COCC(=O)N1CC[C@@]2(CC1)CN([C@@H](CO)c1c2c2ccc(OC)cc2n1C)C(=O)c1ccccn1`, the viability index is 1.02 ± 0.1. The molecule `CCCNC(=O)N1C[C@]2(CN(C2)C(=O)c2cnccn2)c2c([nH]c3cc(OC)ccc23)[C@@H]1CO` gave a viability index of 0.9806 ± 0.0024. Consider `CN1C(=O)c2cc(NC(=O)Nc3ccccc3Cl)ccc2OC[C@H]2O[C@@H](CC(=O)O)CC[C@@H]21`, for which the viability index was determined as 0.897 ± 0.14. For `N#C[C@@H]1N[C@H](CO)[C@@H]1c1ccc(-c2cccc(F)c2)cc1` the value was 1.05 ± 0.086. For `COC(=O)c1ccc(CN2CC(=O)N3[C@@H](CO)[C@@H](c4ccc(-c5cccnc5)cc4)[C@@H]3C2)cc1` the value was 1.04 ± 0.024; for `CC(C)(C)[S@@](=O)N1Cc2cc(C(=O)NC3CCC3)nc(-c3cccc(-c4ccccc4F)c3)c2[C@H]1CCO`, 1.02 ± 0.012. `CCCC(=O)N1C[C@]2(CCN(CC2)S(=O)(=O)CC)c2c([C@@H]1CO)n(C)c1cc(OC)ccc21`: the viability index is 1.04 ± 0.029. The figure for `C[C@H]1CN([C@@H](C)CO)C(=O)c2cc(NS(=O)(=O)c3cn(C)cn3)ccc2O[C@@H]1CN(C)S(=O)(=O)c1ccc(F)cc1` is 0.974 ± 0.018; for `COc1ccc2c3c([nH]c2c1)[C@@H](CO)N(C[C@]31CCN(CC1)C(=O)Nc1ccc2OCOc2c1)C(=O)Nc1ccc(F)cc1` it is 0.998 ± 0.019. In the case of `C[C@H]1CN([C@@H](C)CO)C(=O)CCCn2nncc2CO[C@@H]1CN(C)C(=O)c1ccc2ccn(C)c2c1`, the viability index amounted to 1.09 ± 0.11.

Molecule `CS(=O)(=O)N1C[C@@H](O)COC[C@@H]2O[C@H](CC(=O)NCc3ccccc3)CC[C@H]21` returned a viability index of 0.994 ± 0.022. As to `COC(=O)C[C@@H]1C[C@@H]2c3cc(NC(=O)C4CCOCC4)ccc3O[C@@H]2[C@@H](CO)O1`, the viability index turned out to be 1.099 ± 0.0062.

`CNC[C@H]1Oc2ccc(N)cc2CC(=O)N([C@@H](C)CO)C[C@H]1C`: the viability index is 0.9709 ± 0.0063. As to `COc1ccc2c3c([nH]c2c1)[C@@H](CO)NC[C@]31CN(C1)S(=O)(=O)c1cccc(C)c1`, the viability index is 1.08 ± 0.021. `CN1C(=O)c2cc(NC(=O)NCc3ccccc3)ccc2OC[C@@H]2O[C@H](CC(=O)NCC3CCCCC3)CC[C@H]21` gave a viability index of 1.05 ± 0.02. `COCC(=O)N1[C@@H]2CNc3ccccc3[C@@H]2[C@@H]1CO` displayed a viability index of 1.02 ± 0.11.

`Cc1cccc(S(=O)(=O)N2C[C@@H]3[C@H](c4ccccc42)[C@@H](CO)N3C(=O)c2ccccc2)c1` showed a viability index of 1.03 ± 0.12.

Regarding `CNC[C@H]1OCCCC[C@@H](C)Oc2ccc(NC(=O)Nc3ccc(OC)cc3)cc2C(=O)N([C@@H](C)CO)C[C@@H]1C`, the viability index came to 0.965 ± 0.12. The figure for `CCC(=O)Nc1ccc2c(c1)C(=O)N(C)C[C@@H](OC)[C@H](C)CN(C(=O)NC1CCCCC1)[C@H](C)CO2` is 1.02 ± 0.049; for `CNC[C@H]1Oc2ccc(NS(=O)(=O)c3ccc(OC)cc3)cc2C(=O)N([C@@H](C)CO)C[C@H]1C` it is 1.03 ± 0.085. `O=C(C[C@H]1CC[C@@H]2[C@H](COC[C@@H](O)CN2CC2CCOCC2)O1)NCc1ccc(Cl)cc1` returned a viability index of 1.07 ± 0.052.

`O=C1CNC[C@H]2[C@H](c3ccc(-c4ccccc4F)cc3)[C@@H](CO)N12` came in with a viability index of 1.04 ± 0.068. Consider `CO[C@@H]1CC[C@H]2CCOc3c(C#N)cccc3C(=O)N(C)C[C@@H](OC)[C@@H](C)C(=O)N(C)C[C@H]1O2`, for which the viability index was 1.09 ± 0.043. The molecule `C[C@H](CO)N1C[C@H](C)[C@H](CN(C)Cc2ccc(C(=O)Nc3ccccc3N)cc2)OCc2cnnn2CCCC1=O` showed a viability index of 0.953 ± 0.042. As to `OC[C@@H]1[C@H](c2ccccc2)C2(CN(Cc3nccs3)C2)N1CC1CCOCC1`, the viability index was found to be 1.074 ± 0.0018. Regarding `C[C@@H]1CCCCO[C@@H](CN(C)CC2CCCCC2)[C@@H](C)CN([C@H](C)CO)C(=O)c2cc(NS(C)(=O)=O)ccc2O1`, the viability index turned out to be 1.17 ± 0.11. Regarding `O=C(Nc1ccc(F)cc1)N1C[C@@H]2[C@H](c3ccccc31)[C@H](CO)N2Cc1ccccc1Cl`, the viability index came to 1.01 ± 0.02. In the case of `C[C@@H]1CCCCO[C@@H](CN(C)C(=O)C2CCCCC2)[C@H](C)CN([C@H](C)CO)C(=O)c2cc(NS(=O)(=O)c3ccccc3)ccc2O1`, the viability index came to 1.02 ± 0.071. The molecule `C[C@H](CO)N1C[C@H](C)[C@@H](CN(C)Cc2ccc3c(c2)OCO3)OCCCC[C@H](C)Oc2ccc(NS(=O)(=O)c3cn(C)cn3)cc2C1=O` gave a viability index of 1.09 ± 0.039. For `C[C@@H]1CN([C@H](C)CO)C(=O)c2cc(NC(=O)Nc3cccc4ccccc34)ccc2O[C@@H](C)CCCCO[C@H]1CN(C)Cc1ccc(C(F)(F)F)cc1` the value was 1.07 ± 0.059; for `C/C=C/c1ccc([C@@H]2[C@H](CO)N(C(=O)c3ccccn3)C23CN(CCC(F)(F)F)C3)cc1`, 0.998 ± 0.032. For `N#C[C@@H]1[C@@H](c2ccccc2)[C@@H](CO)N1C(=O)c1cc(Cl)cc(Cl)c1` the value was 1.1 ± 0.042; for `COc1ccc(CN2[C@@H](CO)[C@@H]3c4ccccc4N(C(=O)NC(C)C)C[C@@H]32)cc1`, 1.13 ± 0.11.

`O=C(Nc1ccc2c(c1)[C@H]1C[C@H](CC(=O)N3CCOCC3)O[C@@H](CO)[C@H]1O2)Nc1ccccc1F` displayed a viability index of 1.1 ± 0.013.

Molecule `CCCN1C[C@@H](C)[C@@H](OC)CN(C)C(=O)c2cc(NC(=O)C3CCC3)ccc2OC[C@H]1C` registered a viability index of 1.05 ± 0.06.

These data come from the supplement of paper PMC4723716.
